# Laboratory results published in the RNAGym collection of RNA variant scans (doi:10.7554/elife.90254).
# Read counts are not given, so values of variants with three or more changes are uncertain.
# B1: LINE1-mini (parent)
# chain: GGCAGAGCUCAACACAGCGUGGCAAAGUGGCUGUGGCUAGACUGCC
# Variants of: B1
# Assay: self-cleavage, relative activity (ratio to wild type); higher = more cleavage; in vitro, sequencing; the parent is a self-cleaving ribozyme
row,Variant,self-cleavage
1,A6C A16C G30U,0.01
2,A6C G19U G21U,0.24
3,A6C G21U A26G G29C C45G,0.03
4,G5U G7C G17U G22U G29A,0.06
5,G5U G35U U38G,0.04
6,G5U G17A C42G,0.05
7,G5U U20C G30C,0
8,G5U G27A A41C C45A,0.02
9,A6C A16U G19C U43C,0.05
10,G5U C45G C46U,0.05
11,G5U U9C G17C C45A,0.02
12,G5U G30A G44U,0.05
13,G5U C37A A41U,0.34
14,G5U U20A A39C G44A,0.02
15,A6C C8U G36U C37U U38A,0.01
16,A6C C8G G19C U20G,0.04
17,A6C C8U A16G,0.03
18,G5U G27C G36U,0.02
19,G5U G36C C46U,0.03
20,G5U G19C G21U U32A A41G,0.01
21,A6G C8G A25C U32C A39G,0.07
22,A6G C8G U9C G22A G36A C37A G40C,0.01
23,A6C C10A A39U,0.12
24,A6G A11U G36C,0.02

row,Variant,self-cleavage
1,A6C C10U A16G C31G,0.01
2,A6C A11C A41U,0.07
3,G5U G27A U43G G44C,0.02
4,A6C C31G G40C C42A,0.01
5,G5U G7C G22A G27C,0.04
6,A6C C8A A11C,0.04
7,A6C A12G G30C,0.02
8,G5U G27C G44U C46U,0.14
9,A6C A14C G17U G21A,0.01
10,A6C U28C C45G,0.14
11,G5U G19C G35U,0.04
12,A6G C8U G21C G36A A41U C46G,0.06
13,A6G A12U A24C U38G C42A,0.01
14,A6C C37G C42U,0.11
15,G5U U34A G44C,0.03
16,A6C C10A A14U G22A C31A G44U,0.01
17,A6C C37G U43C G44A,0.04
18,A6C G27A U28A U32G C45U,0.01
19,A6C G21C A25C,0.15
20,A6G C8U G27C U32C,0.02
21,A6C C18U C23A G27A U28G C37G,0.02
22,G5U G21U C23G C31U,0.19
23,A6C A14G G21A G29U G30C,0.01
24,A6C G33A C46U,0.11

row,Variant,self-cleavage
1,A6C C13G U20A G44A,0.05
2,A6G C8U U9A U28G U34A C42A,0.03
3,G5U G30A A41G,0.07
4,G5U G44U C45A,0.05
5,G5U U32C A41G,0.02
6,A6C G7U C37G A39C C45U,0.11
7,G5U G33U A39G,0.08
8,A6C C31A C42A C45U,0.01
9,A6C U28G G40C,0.05
10,A6C U20A A25U,0.38
11,A6C G22C G44U C45G C46A,0
12,A6C U38C C42A,0.05
13,A6C A11U C13U U34C C46U,0.03
14,A6G A25G G36A A39C A41U,0.58
15,G5U U34G C46U,0.01
16,A6C G7A A24U U28G U34A C37G A41C C45G,0.02
17,G5U U28G A41C,0.03
18,A6C A11G G27A U38C,0.03
19,A6C G33C C46G,0.04
20,G5U G36U C45G,0.02
21,A6C G21U A25U,0.14
22,A6G C8A A39G A41U,0.02
23,A6G A11C G19U A25C,0.03
24,A6G C8U G17U G36U,0.03

row,Variant,self-cleavage
1,G5U G22U U32A G33U U43A,0.03
2,G5U G7C A14G,0.08
3,G5U U28G G29U,0.2
4,G5U G17U G33U A41C C45G,0.02
5,G5U G22A C45G,0.03
6,A6C A14U U20A A24U A25U G27C,0.38
7,A6C C10G G27C A39G,0
8,G5U G30A U32C,0.09
9,G5U U9G A24U A41U,0.05
10,G5U U9G G29U,0.12
11,A6C A12G A39U,0.06
12,A6C A16G G22U A26C G29U C46G,0.07
13,A6C C10U C23U,0.07
14,A6C C10U G19C G30A A39U,0.28
15,A6G A16G A26U G40A,0.02
16,A6C G33C G36A U38A,0.06
17,A6G A11U G33U,0
18,G5U G7C U20C,0.11
19,A6G A14U C18A,0.02
20,A6C G7C U28C C45U,0.15
21,G5U G19C G29U,0.27
22,A6C A11G A26U G27U,0.01
23,A6C U9A C13A,0.13
24,A6C A11U U34C C45A,0.02

row,Variant,self-cleavage
1,A6C G7C C23A C45G,0.06
2,G5U C37A A39U C46G,0.02
3,G5U G7U A11U A26C,0
4,A6C C10A G19C G35U,0.04
5,A6C C15A G29C G40A,0.18
6,A6C C15G A16U G17U U28C U32A,0.05
7,A6G A26C G35U U38C,0.01
8,A6C C13G G17A C23G A39G G44U,0.02
9,G5U G35U A39U,0.08
10,A6G C10A C23G U32G G36U C45U,0.01
11,A6C U28G G35U,0.07
12,A6C G19U G40U,0.05
13,G5U G44A C46U,0.04
14,A6G A11G G19C,0.02
15,A6G A12G A26C,0
16,G5U G17U U34C,0.06
17,A6C C18A A26C G27A G29A,0.49
18,A6C C31A G33U,0.03
19,A6G C8A G35U C37A G40U,0.01
20,A6C G36C C37G,0.53
21,A6C G19U G29U A39U,0.64
22,A6C G17A U34C G40U,0.12
23,A6C C8U U28A G36C G40C C45A,0.04
24,G5U U43C G44U,0.27

row,Variant,self-cleavage
1,G5U U9G U28A C46A,0.08
2,G5U U20G G22A,0.14
3,A6G C8U C10G A16U G17A,0.02
4,G5U G7A G21U C23A,0.54
5,A6C G19U C31U U32C C45G,0.08
6,A6C U20A U28C G29C,0.42
7,A6C U9C C10U U34C C37A,0
8,A6C C23U G30A,0.8
9,A6C G22A C23A A24G G35U,0.06
10,A6C C23G G30C G40C,0.02
11,A6G C10A G44C,0.03
12,A6G A12C C45A,0.03
13,A6C G30C G35U G36C U38A,0.02
14,A6G A12U G17C U32G C37A,0.03
15,G5U G35A U43C,0.04
16,A6C G7A A12C G21A G40A C46A,0.01
17,A6G A26G G33C U34G G40C C42U,0.03
18,A6C A12C G27C,0.03
19,A6C C8U C42U,0.26
20,A6C C13A G19A G22C,0.27
21,G5U G21A G27A,0.07
22,A6C G19A A26C G29C G33A G35U A39C,0.08
23,G5U G29C G40U,0.02
24,G5U U20G C23U A41G U43A,0.23

row,Variant,self-cleavage
1,G5U G30C G35A A41U,0.03
2,A6G A12C U20A,0
3,G5U G7A C10U C23U G29A,0.03
4,G5U G7U U20G,0.23
5,A6C C8G A26G G29U G35C,0.01
6,G5U G17A A24C G30C A41C,0.01
7,A6G A12C C15U U28G G30A C42A U43A C46A,0.01
8,A6G A12U C15G,0.01
9,A6G A11U G17A G36U,0.05
10,A6C C10U C13U G17U C18U G22A U43A,0.02
11,A6C C8G G22U C46G,0.02
12,A6C A25U C31U,0.24
13,A6C C15A U28A,0.02
14,A6C U20A G22A A25U,0.63
15,G5U U9A C18A C23A,0.05
16,A6G C8U G40U,0.04
17,A6C G27U A41U C45U,0.03
18,A6C G36A C42G,0.01
19,A6G C8G C23U,0.09
20,A6G A25G G40A G44U,0.03
21,A6C C13A A14G G17A A39G,0.08
22,A6C C37G C46G,0.04
23,A6C G19A G44C,0.16
